The supplement of paper PMC3724861
The other results are listed elsewhere or left out.

system: T1, Caupolican (Caup) homeodomain DNA-binding domain; assay: PBM E-score (8-mer, recovered from the published 9-mer minima) (E-score (dimensionless, -0.5 to 0.5)); Drosophila protein; higher = stronger relative binding preference, active = 0.31 or more
T1 sequence: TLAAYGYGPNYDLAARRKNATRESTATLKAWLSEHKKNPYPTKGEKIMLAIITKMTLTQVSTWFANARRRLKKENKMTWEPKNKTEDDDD
Method in brief: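 Caup's homeodomain DNA-binding domain (residues 214-303) was produced by in vitro transcription and translation and applied at 100 nM to custom-designed protein binding microarrays. Each value is an enrichment score giving relative binding preference for a short DNA word; higher means stronger. Published 9-mer scores were the minimum of their two constituent 8-mer scores, and the 8-mer values were recovered from those minima. A cutoff of 0.31 marks candidate binding sequences.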

| Sequence | PBM E-score |
| --- | --- |
| CCGCACCG | inactive: -0.0712 |
| ACCTCAGC | inactive: -0.0755 |
| ATCTAGCC | inactive: -0.13 |
| ACATTGAA | inactive: 0.259 |
| CAGACTCG | inactive: -0.0201 |
| ACACGCTC | inactive: 0.248 |
| GGGGCGCA | inactive: -0.201 |
| AAGGAATG | inactive: 0.0264 |
| ATCTTCAA | inactive: 0.0619 |
| AATATGAG | inactive: 0.0796 |
| GACGAATA | inactive: 0.0347 |
| CGTACAGA | inactive: 0.142 |
| ATGGAAAT | inactive: 0.126 |
| GGGATACA | inactive: 0.229 |
| GGCAGCGA | inactive: -0.241 |
| ACCGAGGC | inactive: -0.133 |
| GGTCTCGA | inactive: -0.0505 |
| GACGGTCA | inactive: -0.173 |
| CTCCGGAC | inactive: -0.0485 |
| AACGCGCG | inactive: -0.0517 |
| CCACACAC | inactive: 0.0259 |
| AGAAATCA | inactive: -0.00877 |
| CCCCTAGA | inactive: -0.0794 |
| CTTGCTTC | inactive: 0.0842 |

| Sequence | PBM E-score |
| --- | --- |
| AGTTCATA | inactive: 0.0856 |
| GTCACAAC | inactive: 0.168 |
| GCGAGGAC | inactive: -0.194 |
| CGACGGAA | inactive: 0.00015 |
| GCGCCTGA | inactive: -0.119 |
| CACTGGAC | inactive: -0.00881 |
| ATAGGGAT | ≥ 0.0224 |
| AAGCACCG | inactive: -0.0685 |
| ACTACTTA | inactive: 0.0929 |
| TCCCGGGA | inactive: -0.153 |
| CTCTGGAA | inactive: -0.12 |
| CCTCGGCA | inactive: -0.116 |
| ACAACAAA | active: 0.323 |
| AAACCGCG | ≥ 0.0459 |
| CGAGCAAA | inactive: 0.0137 |
| CCGAGATA | inactive: -0.0259 |
| CAGACGAA | inactive: 0.105 |
| CGCTTCGA | inactive: -0.147 |
| GGCCAGAA | inactive: -0.0915 |
| CAGCTACG | inactive: -0.101 |
| GTCATTAA | inactive: 0.205 |
| GACAGATA | ≥ 0.201 |
| AAATGAAC | inactive: 0.166 |
| CGCGGTCC | inactive: -0.269 |

| Sequence | PBM E-score |
| --- | --- |
| CATGCTTC | inactive: 0.0983 |
| GATCGCAA | inactive: 0.0769 |
| GGCAGTTA | inactive: -0.0401 |
| CAACGGCA | inactive: -0.0152 |
| CCCGCAGC | inactive: -0.271 |
| CTATCTGC | inactive: -0.0723 |
| GGGAAATA | inactive: 0.0591 |
| GCCACGTA | inactive: -0.0264 |
| ACTTAGTG | inactive: 0.0348 |
| AGGCCATA | inactive: -0.0649 |
| ATCGATAC | inactive: 0.228 |
| AGGATAAC | inactive: 0.0584 |
| CCATCGAC | inactive: -0.149 |
| ATGGTAAC | inactive: 0.227 |
| TAGAAAAA | inactive: 0.0409 |
| GAACGTCC | inactive: 0.00472 |
| AACTATGA | inactive: 0.0863 |
| AGCCACGA | inactive: -0.0999 |
| CACCTGGG | inactive: -0.155 |
| AGTGATGG | inactive: 0.0548 |
| AGTTTACG | inactive: 0.0155 |
| AGTCTTAT | inactive: 0.0971 |
| GTTGGTTA | inactive: 0.163 |
| CCTAGCAG | inactive: -0.124 |

| Sequence | PBM E-score |
| --- | --- |
| CTACGCAA | inactive: -0.0565 |
| GAGCATCC | inactive: -0.0998 |
| CGCAATAC | inactive: 0.0451 |
| GTGTGGTA | inactive: 0.0835 |
| GTGCTCGA | inactive: -0.0316 |
| AAACGCAA | inactive: 0.00551 |
| AGTGCAAC | inactive: 0.0396 |
| AACCAGAC | ≥ 0.173 |
| CCATCTGC | inactive: -0.0543 |
| GCCAAATA | inactive: -0.00793 |
| GCCGATCC | inactive: -0.152 |
| GTGGTGCA | inactive: -0.0503 |
| CCCCATCG | inactive: -0.203 |
| ATACGGCC | inactive: -0.0828 |
| CGGACATA | inactive: 0.223 |
| CGACTCCA | inactive: -0.0558 |
| GGTCGATA | inactive: -0.0421 |
| GAGATGAC | inactive: 0.0225 |
| TATTAGCA | ≥ 0.172 |
| GTCACCGA | inactive: 0.0281 |
| GGATAGTA | ≥ 0.172 |
| CTGATTAC | inactive: 0.231 |
| ACATGCAC | active: 0.393 |
| GACAGCCC | inactive: -0.0688 |

| Sequence | PBM E-score |
| --- | --- |
| CCGTAGGC | inactive: -0.231 |
| CTAGGGAA | inactive: -0.0555 |
| CTATTGGA | inactive: 0.00708 |
| CTCGACAC | inactive: 0.105 |
| AAGTCGGG | inactive: -0.103 |
| CCCAGTGA | inactive: -0.0998 |
| GACTTTGA | inactive: -0.0255 |
| ATAATATC | inactive: 0.231 |
| CGTTGGTA | inactive: 0.202 |
| ACCGCCCG | inactive: -0.323 |
| CACATGTA | active: 0.42 |
| CCCAGTTA | inactive: -0.134 |
| AGTCTCAT | inactive: -0.00161 |
| CTGTATTA | inactive: 0.159 |
| GCGCAACC | inactive: -0.145 |
| CGCAACAC | inactive: 0.0463 |
| ATCTAAAG | inactive: 0.0121 |
| CTTAGGCC | inactive: -0.241 |
| CCGTTCAG | inactive: -0.0977 |
| AGTTGCCG | inactive: -0.0224 |
| CCTTTTCG | inactive: -0.0928 |
| ACGTCTAA | inactive: 0.002 |
| CGCTAGCC | inactive: -0.283 |
| CTCCTCAA | inactive: -0.164 |

| Sequence | PBM E-score |
| --- | --- |
| CCGATATA | inactive: 0.0359 |
| GTTCCCAA | inactive: -0.045 |
| CTCCCCAA | inactive: -0.0757 |
| AATTATTA | inactive: 0.214 |
| GGTCTAGA | inactive: -0.134 |
| CATTACGG | inactive: 0.00577 |
| GCGCATAC | inactive: 0.0093 |
| CACGGTAA | inactive: 0.0544 |
| GGAACCAA | inactive: 0.0388 |
| GATCCCCC | inactive: -0.182 |
| AAGAGTGG | inactive: -0.0354 |
| GGATACTA | inactive: 0.0428 |
| GAACGTTA | inactive: -0.0679 |
| ACACAGGC | inactive: 0.0845 |
| GATGATGC | inactive: -0.061 |
| GTGCCATA | inactive: -0.0152 |
| GCTAAGCC | inactive: -0.227 |
| CCGCGTAG | inactive: -0.0732 |
| TAACGCAA | inactive: 0.0712 |
| CCGTCCAG | inactive: -0.245 |
| CAGATTAG | inactive: -0.0364 |
| TAACTTCA | inactive: 0.137 |
